# “And” between values parts separate entries of the source, which are not always exact repeats. Equal entries are not always repeated. This list was built around the results that the source calls inconclusive (neither active nor inactive); the mix of calls is not that of the screen. Potencies beside an inconclusive call are fits to weak or partial responses and may not hold up. The source holds several records for some structures; these can differ, active in one and inactive in another. The source made the active and inactive calls. The call rests on the fitted dose curve; in most records, active means well fitted curve in the direction sought with a large enough effect in the repeat runs; inconclusive means weak or mixed curves; inactive means no such curve, though single readings can be large; an effect the other way counts as inactive or inconclusive.
# Key:
# [1] = A CellTox Green Cytotoxicity Assay to monitor cytotoxicity in HEK293 cells - 8 hour (AID 1224884); settings: CellTox Green fluorescence; series mostly up to 76.8 µM; further: nearly all actives have a fitted effect of over 35% in size
# Summary of the method: (§1)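 Fluorescence from a DNA-binding dye excluded by viable cells was measured repeatedly in the same HEK293 wells (600 cells/well) during continuous compound exposure at 37 C. Each assay gives one read point: 0, 8, 16, 24, 32 or 40 h.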
# [2] = qHTS RealTime-Glo MT Cell Viability Assay in HepG2 cells - 16 hour (AID 1224885); settings: RealTime-Glo luminescence; series mostly up to 76.8 µM; further: nearly all actives have a fitted effect of over 50% in size
# Summary of the method: (§2)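 Real-time, nonlytic viability: 600 HepG2 cells/well mixed with NanoLuc enzyme plus prosubstrate; 5 h settle, compound (DMSO) added by pintool; luminescence monitored over 40 h at 37 C.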
# [3] = qHTS RealTime-Glo MT Cell Viability Assay in HEK293 cells - 8 hour (AID 1224887); settings: RealTime-Glo luminescence; series mostly up to 76.8 µM; further: nearly all actives have a fitted effect of over 50% in size
# Summary of the method: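 Luminescence, which tracks viable cell number through reduction of the prosubstrate to a NanoLuc substrate, was read over continuous 37 C culture. Cells (600/well) were premixed with reagent and rested 5 h before 23 nL of compound in DMSO was pinned.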
# [4] = A CellTox Green Cytotoxicity Assay to monitor cytotoxicity in HEK293 cells - 16 hour (AID 1224888); settings: CellTox Green fluorescence; series mostly up to 76.8 µM; further: nearly all actives have a fitted effect of over 35% in size
# Summary of the method: as §1
# [5] = A CellTox Green Cytotoxicity Assay to monitor cytotoxicity in HepG2 cells - 8 hour (AID 1224890); settings: CellTox Green fluorescence; series mostly up to 76.8 µM; further: nearly all actives have a fitted effect of over 45% in size
# Summary of the method: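 Real-time cytotoxicity: fluorescence of a cell-impermeant cyanine dye binding DNA of dead HepG2 cells, measured repeatedly (0–40 h) during compound exposure at 37 C. Cells seeded 600/well with reagent, dosed after 5 h.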
# [6] = qHTS RealTime-Glo MT Cell Viability Assay in HEK293 cells - 24 hour (AID 1224886); settings: RealTime-Glo luminescence; series mostly up to 76.8 µM; further: nearly all actives have a fitted effect of over 50% in size
# Summary of the method: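 Cells + reagent dispensed (600 cells/well, HEK293) → 5 h at 37 C/5% CO2 → 23 nL compound in DMSO pinned → 40 h at 37 C → luminescence read at 0, 8, 16, 24, 32, 40 h.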
# [7] = qHTS RealTime-Glo MT Cell Viability Assay in HepG2 cells - 0 hour (AID 1224889); settings: RealTime-Glo luminescence; series mostly up to 76.8 µM; further: nearly all actives have a fitted effect of over 50% in size
# Summary of the method: as §2
# [8] = qHTS assay to identify small molecule antagonists of the estrogen receptor alpha (ER-alpha) signaling pathway using the BG1 cell line in the presence of 0.1 nM 17-beta-estradiol - cell viability counter screen (AID 1259241); settings: VM7Luc4E2 (BG1) viability, CellTiter-Fluor protease, 22 h, 0.1 nM estradiol agonist added; series mostly up to 92.4 µM; further: nearly all actives have a fitted effect of over 40% in size
# Summary of the method: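 Cytotoxicity counter-screen: live-cell protease activity measured by fluorescence (30 min reagent step) in the same wells. Cells were VM7Luc4E2 with endogenous ER-alpha and ERE-driven luciferase, treated 22 hr at 37C alongside 0.1 nM 17beta-estradiol final.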
# Potency means the concentration at half of the fitted maximal effect; tags describe the fitted curve by direction and shape.
smiles,measurement,setting,value
OCCOCCN1CCN(C(c2ccccc2)c2ccc(Cl)cc2)CC1 (centres undefined),Potency,[1],"inconclusive: 54.2 µM [activator, single point]"
same,Potency,[2],active: 48.3 µM
same,Potency,[3],"inconclusive: 15.3 µM [cytotoxic, partial curve]"
same,Potency,[4],"inconclusive: 54.2 µM [activator, single point]"
Nc1ccn(C2CO[C@H](CO)O2)c(=O)n1 (some centres undefined),Potency,[1],active: 16.9 µM
CC(C)(C)CC(C)(C)c1ccc(O)c(-n2nc3ccccc3n2)c1,Potency,[1],"inconclusive: 55.7 µM [activator, single point]"
same,Potency,[3],"inconclusive: 44.3 µM [cytotoxic, partial curve]"
same,Potency,[4],"inconclusive: 55.7 µM [activator, single point]"
Cc1ccc(NC(N)=O)cc1,Potency,[1],inactive
same,Potency,[5],inactive
O=C(O)c1cc(O)c2ccccc2c1O,Potency,[1],inactive
same,Potency,[6],active: 43.6 µM
same,Potency,[7],"inconclusive: 21.9 µM [cytotoxic, partial curve, poor fit]"
CCCCC(CC)COC(=O)c1ccccc1C(=O)O (centres undefined),Potency,[1],"inconclusive: 62.8 µM [activator, single point]"
same,Potency,[6],"inconclusive: 14.1 µM [cytotoxic, full curve]"
same,Potency,[7],"inconclusive: 62.8 µM [cytotoxic, partial curve, poor fit]"
CC1COc2ccccc2N1C(=O)C(Cl)Cl (centres undefined),Potency,[1],"inactive and inconclusive: 61.6 µM [activator, single point]"
CC1CCC(C(C)CS)CC1S (centres undefined),Potency,[1],active: 49 µM
same,Potency,[3],inactive
same,Potency,[7],inactive
COc1ccc(OC(F)(F)F)cc1CN[C@H]1CCCN[C@H]1c1ccccc1,Potency,[1],"inconclusive: 54.9 µM [activator, single point]"
same,Potency,[6],active: 43.6 µM
same,Potency,[3],"inconclusive: 49 µM [cytotoxic, partial curve, poor fit]"
same,Potency,[4],"inconclusive: 54.9 µM [activator, single point]"
same,Potency,[7],"inconclusive: 19.5 µM [rising, partial curve]"
same,Potency,[5],"inconclusive: 61.6 µM [activator, single point]"
same,Potency,[8],"inconclusive: 68.6 µM [cytotoxic, single point]"
CN(C/C=C/C#CC(C)(C)C)Cc1cccc2ccccc12,Potency,[1],inactive
same,Potency,[6],"inconclusive: 23.9 µM [cytotoxic, partial curve, poor fit]"
same,Potency,[3],"inconclusive: 23.9 µM [cytotoxic, partial curve, poor fit]"
same,Potency,[4],"inconclusive: 26.8 µM [activator, single point]"
CN(C(=O)CN(CCO)CC(=O)N(C)C(C)(C)Cc1ccccc1)C(C)(C)Cc1ccccc1,Potency,[1],"inconclusive: 26.8 µM [activator, single point]"
same,Potency,[2],"inconclusive: 23.9 µM [cytotoxic, partial curve]"
same,Potency,[6],active: 19 µM
same,Potency,[3],"inconclusive: 21.3 µM [cytotoxic, partial curve]"
same,Potency,[4],"inconclusive: 26.8 µM [activator, single point]"
same,Potency,[7],"inconclusive: 19 µM [cytotoxic, partial curve]"
same,Potency,[5],"inconclusive: 23.9 µM [activator, single point]"
Cc1cc(O)ccc1O,Potency,[1],inactive
same,Potency,[6],"inconclusive: 3.93 µM [rising, partial curve]"
same,Potency,[3],"inconclusive: 62.3 µM [cytotoxic, single point]"
same,Potency,[4],"inconclusive: 55.5 µM [activator, single point]"
same,Potency,[8],"inconclusive: 77.8 µM [cytotoxic, single point]"
C=CN1CCCC1=O,Potency,[1],inactive
CCC(=O)OCc1ccccc1,Potency,[1],inactive
CCCCOCCOC(=O)c1ccccc1C(=O)OCCOCCCC,Potency,[1],"inconclusive: 54.9 µM [activator, partial curve, poor fit]"
same,Potency,[6],"inconclusive: 47.9 µM [cytotoxic, partial curve]"
same,Potency,[3],"inconclusive: 38.1 µM [cytotoxic, partial curve]"
same,Potency,[4],inactive
same,Potency,[8],"inconclusive: 47.5 µM [cytotoxic, partial curve]"
CCCCOCCOCCSC#N,Potency,[1],inactive
CCCCC/C=C/C=C/C=O,Potency,[1],"inconclusive: 54.5 µM [activator, single point]"
same,Potency,[6],"inconclusive: 54.5 µM [cytotoxic, single point]"
same,Potency,[4],"inconclusive: 54.5 µM [activator, single point]"
